Among all 340,000 compounds or so, about 12,000 (3.5%) were called active. The inconclusive results got no clear call from the source; some entries with a clear call stand among them for comparison. Calls come from the whole dose curve; as a rule, active = well fitted inhibition curve with a large enough effect; inconclusive = small, poorly fitted or top-dose-only effect, or another doubt; inactive = no such curve, though single readings can be large or run the other way. Potencies of inconclusive entries are left out as doubtful fits.
Test: qHTS Assay for Inhibitors of Hepatitis C Virus (HCV)
Details: Huh7.5.1 HCVcc-Cre (HCVcc is cell-culture hepatitis C virus) infection, luciferase reporter, 44 h; activity change, negative = inhibition: at 41.8 µM (top of the series) unless noted
Outline: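 Infectious HCV cell culture screen: compound-treated cells (1,000/well, pre-plated 4 h) are infected with HCVcc-Cre at roughly 0.5 moi and grown 44 h. Infection is quantified by luciferase signal after 15 min substrate incubation at room temperature.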
% is set by controls: 0 for no effect and ±100 for the full control effect; potency is the fitted concentration of half-maximal effect; tags give direction and shape of the fitted curve.

Structure (SMILES)	Potency	activity change, negative = inhibition
CCCC(=O)NC(NC(=S)Nc1ccc(S(N)(=O)=O)cc1)C(Cl)(Cl)Cl (stereo unspecified)	inactive	
Cc1ccc2c(c1)N=C(c1ccccc1)CC(C(Cl)Cl)=N2	inconclusive [inhibitor, single point]	
CCc1ccc(C(=O)c2cncc(Br)c2)cc1	inactive	
CC(=O)C1=C(O)C(=O)N(c2ccccn2)C1c1ccc(C)cc1 (stereo unspecified)	inconclusive [inhibitor, single point]	
C[C@@H](c1ccccc1)N1Cc2ccccc2Oc2cc(Br)ccc2S1(=O)=O	inconclusive [inhibitor, single point]	
COCCSc1ccccc1C(=O)Nc1cc([N+](=O)[O-])ccc1OC	active: 7.94 µM	
CCOC(=O)/C(=N\Nc1ccccc1[N+](=O)[O-])c1csc(Nc2ccccc2)n1	active: 5.01 µM	
COc1cccc2sc(NC(=O)c3ccc(Br)s3)nc12	inconclusive [inhibitor, partial curve]	
Nn1c(SCC(=O)NCCCc2ccccc2)nnc1-c1cccnc1	inconclusive [inhibitor, partial curve]	
CCOC(=O)c1cc2c(=O)n3ccccc3nc2n(CC(C)C)c1=NC(=O)c1c(-c2c(F)cccc2Cl)noc1C	active: 10 µM	
CC(C)C(=O)Nc1nc2cc3c(cc2s1)OCO3	inconclusive [inhibitor, single point]	
Cc1nn2c(c1-c1ccc(Cl)cc1)N=C(c1ccco1)CC2c1ccccc1 (stereo unspecified)	active: 2.51 µM	
CCOC(=O)c1ccccc1OCc1cc(/C=N/n2cnnc2)ccc1OC	inactive	
COCCNC(=S)Nc1cc(OC)c(NC(=O)c2ccco2)cc1OC	active: 12.6 µM	
CCOC(=O)c1ccccc1NC(=O)C1CCN(c2ncnc3sc(C)c(C)c23)CC1		inconclusive: -98.9% [inhibitor]
Cc1ccc2c(CC(=O)Nc3ccc(N4CCN(C)CC4)cc3C)coc2c1	inconclusive [inhibitor, partial curve]	
O=C(NN=Cc1ccc(F)cc1)C1CC1	inactive	
O=C(CN1C(=O)NC(c2ccccc2)(c2ccccc2)C1=O)NCc1ccco1	inconclusive [inhibitor, single point]	
O=C1NC(c2cccc(Br)c2)=N/C1=C\c1ccco1	inactive	
CCc1nc2ccccc2c(C(=O)OCC(=O)NC2CCCC2)c1C	inconclusive [inhibitor, partial curve]	
CCCCNc1ccc(C(F)(F)F)cc1S(=O)(=O)NCCc1ccc(F)cc1	inconclusive [inhibitor, single point]	
Cc1ccc(CNCCCn2cnc3c(OCc4ccccc4)ncnc32)o1		inactive: -8.18% [at 8.37 µM]
Cc1cccc(-n2c(C)cc(C(=O)NC3CCCCC3)c2C)c1	inactive	

Structure (SMILES)	Potency	activity change, negative = inhibition
COc1ccc(OCC(=O)N2CCCC(CO)(CCOc3ccccc3)C2)cc1 (stereo unspecified)	inconclusive [inhibitor, single point]	
O=[N+]([O-])c1cc(C(F)(F)F)ccc1NCCc1ccccn1	inconclusive [inhibitor, single point]	
Cc1[nH]c2ccc3ccccc3c2c(=O)c1C/C=C/Cl	inconclusive [inhibitor, single point]	
COc1ccc(/C=N/NC(=O)C(Cc2c[nH]c3ccccc23)NC(=O)OCC(C)C)cc1[N+](=O)[O-] (stereo unspecified)	inconclusive [inhibitor, single point]	
COc1ccccc1OCCNC(=O)c1ccc(C)c(S(=O)(=O)N2CCOCC2)c1	inconclusive [inhibitor, full curve, poor fit]	
COCCNC(=O)c1cccc(OC2CCN(Cc3ccc(OC(F)F)cc3)CC2)c1	active: 7.08 µM	
CCCCn1c2ccc(F)cc2c2nnc(NN)nc21	inconclusive [inhibitor, single point]	
CCN(CC)c1ccc(NC(=O)CSc2nc(C3CC3)nc3ccccc23)cc1C	inconclusive [inhibitor, partial curve]	
Cc1cc(Br)ccc1NC(=S)Nc1cccc([N+](=O)[O-])c1	inconclusive [inhibitor, partial curve]	
Cc1cccc(NC(=O)c2cc(-c3cc(C)cc(C)c3O)n[nH]2)c1	active: 11.2 µM	
CCOc1ccccc1CN1CCN(Cc2ccc(C)o2)CC1CCO (stereo unspecified)	inactive	
CC(=O)CCc1ccc(OCCCCN2CCC(Cc3ccccc3)CC2)cc1	inconclusive [inhibitor, partial curve, poor fit]	
O=C(NCc1nc2ccccc2[nH]1)C1=C[C@H](c2coc3ccccc3c2=O)C[C@H](OCc2ccc(CO)cc2)O1	inconclusive [inhibitor, single point]	
COc1ccc2[nH]c3c(=O)n4c(nc3c2c1)SCC4	inactive	
O=C(CN1C(=O)NC2(CCCc3ccccc32)C1=O)NCc1ccco1 (stereo unspecified)	inactive	
O=C1C2C(C(=O)N1/N=C/c1cc([N+](=O)[O-])c(O)cc1O)C1C=CC2C12CC2 (stereo unspecified)	inactive	
Cc1cc2nc(C(F)(F)F)cc(-c3cccs3)n2n1	inactive	
CC(C)CNC(=O)c1cccc(NC(=O)c2ccco2)c1	inconclusive [inhibitor, single point]	
CCN(CC)CCCNC(=O)C1CCN(c2ncnc3c2sc2cccc(F)c23)CC1	inconclusive [inhibitor, single point]	
Cn1c(=O)oc2cc(S(=O)(=O)Nc3ccc4c(c3)OCCO4)ccc21	inactive	
CC(C)Nc1oc(-c2cccc3ccccc23)nc1C#N	inconclusive [inhibitor, single point]	
O=C(O)c1ccc(NNC(=S)Nc2cc(C(F)(F)F)ccc2Cl)cc1	inactive	
c1ccc(-c2csc3ncnc(NCC4COc5ccccc5O4)c23)cc1 (stereo unspecified)	active: 0.562 µM	

Reference: PubChem BioAssay AID651820 (National Center for Advancing Translational Sciences (NCATS), 2012)
